The source of these data is PubChem BioAssay AID488969 (Vanderbilt High Throughput Screening Facility, 2010).

Over roughly 110,000 compounds, “z-score” has its median near -0.1; the highest 2% begin near 2. Some of the results follow. Activity calls are given as the source filed them.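 How the source made its calls: active means z-score in the third read window above 3 or below -3; inactive means the rest.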

The target in this test is Metabotropic glutamate receptor 8 (Rattus norvegicus) (UniProt P70579). The test can be described thus: mGluR8 Gi/Go-coupled signaling modulation – cell-based, rat, thallium flux, HTS, primary screen (AID 488969). Particulars: HEK293 rat mGluR8, GIRK (G protein-gated inwardly rectifying potassium channel) thallium flux, FluoZin2; at 10 µM; stronger effect = higher value; submaximal glutamate (EC20) added with thallium.
Chain of UniProt P70579 (P70579 whole entry, looked up): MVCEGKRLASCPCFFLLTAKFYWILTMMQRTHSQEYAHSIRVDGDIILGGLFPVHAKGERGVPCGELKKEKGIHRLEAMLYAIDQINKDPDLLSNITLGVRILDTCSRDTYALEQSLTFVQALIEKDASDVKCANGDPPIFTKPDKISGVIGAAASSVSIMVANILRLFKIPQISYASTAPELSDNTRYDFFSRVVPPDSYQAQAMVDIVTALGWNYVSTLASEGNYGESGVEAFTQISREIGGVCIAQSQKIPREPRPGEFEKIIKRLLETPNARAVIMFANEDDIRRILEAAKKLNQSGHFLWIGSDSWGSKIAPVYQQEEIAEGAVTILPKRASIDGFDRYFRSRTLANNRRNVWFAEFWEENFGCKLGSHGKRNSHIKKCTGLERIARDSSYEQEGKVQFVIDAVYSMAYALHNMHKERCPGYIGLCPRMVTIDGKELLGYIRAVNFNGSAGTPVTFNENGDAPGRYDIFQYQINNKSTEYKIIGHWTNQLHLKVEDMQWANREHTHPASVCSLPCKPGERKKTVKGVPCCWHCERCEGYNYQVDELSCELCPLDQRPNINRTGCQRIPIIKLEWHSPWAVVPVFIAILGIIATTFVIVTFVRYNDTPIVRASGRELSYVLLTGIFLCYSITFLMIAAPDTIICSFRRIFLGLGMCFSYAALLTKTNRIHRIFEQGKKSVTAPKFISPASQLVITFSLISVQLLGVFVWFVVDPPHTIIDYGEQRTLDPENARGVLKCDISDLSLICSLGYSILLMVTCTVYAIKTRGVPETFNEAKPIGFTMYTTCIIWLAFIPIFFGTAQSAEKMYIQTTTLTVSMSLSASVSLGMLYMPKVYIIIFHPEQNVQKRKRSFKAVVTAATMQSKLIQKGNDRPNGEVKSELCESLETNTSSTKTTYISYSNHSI
On to `O=C(CCN1C(=O)C2C3CC(C(Br)C3Br)C2C1=O)OCC(=O)c1ccccc1` (configuration not stated), for which the z-score is -0.398.

As to `COc1ccc(OC)c(S(=O)(=O)NC(C)(C)C)c1`, the z-score is -0.0387.

For `COc1ccccc1NC(=S)N(Cc1ccco1)Cc1cc2cc(C)ccc2[nH]c1=O`, the z-score is -0.162.

As for `Cc1ccc(OCCSCc2nc3ccccc3[nH]2)cc1`, the z-score is -0.234.

For `CCOC(=O)c1c(C)[nH]c(C(=O)NNC(=O)c2ccccc2)c1C`, the z-score is -0.147.

On to `CCOC(=O)C1CCCN(C(=O)c2ccc(CS(=O)(=O)c3ccc(Br)cc3)o2)C1` (configuration not stated), for which the z-score is -0.556.

Consider `Cc1cccc(N=C2NN=C(c3ccc4c(c3)OCCO4)CS2)c1`, for which the z-score was -0.084.

In turn, `Cn1c(SCc2cccc3ccccc23)nnc1-c1ccco1` showed a z-score of 2.15.

`O=C(COc1ccccc1)Nc1nnc(-c2ccc(Cl)s2)o1` registered a z-score of 0.405.

For `CCOC(=O)c1ccc(COC(=O)c2cc(=O)[nH]c3ccccc23)o1`, the z-score is -0.0753.

With `C=CCSC1=N/C(=C\c2ccsc2)C(=O)S1`, the z-score was -0.538.

In the case of `Cc1ccc2[nH]c(=O)c(-c3nc4c(C)cccn4c3NCc3ccco3)cc2c1`, the z-score was -0.357.

Turning to `CN(CCNC(=O)CCNC(=O)Cn1ccc2ccccc2c1=O)Cc1ccccc1`, the z-score was -0.00516.

With `COc1ccc(/C=C2/N=C3CCCCCN3C2=O)cc1OC`, the z-score came out at 0.128.

Take `COc1cc(NC(=O)CN(C)C2CCCCC2)c(C)cc1[N+](=O)[O-]`: the z-score was -0.669.

The compound `CCC(=O)Nc1nnc(Cc2ccccc2)s1` returned a z-score of 0.0398.

Regarding `Cc1nc2sc(C(c3ccc(Br)cc3)N3CC(C)OC(C)C3)c(O)n2n1` (configuration not stated), the z-score came to 0.745.

In turn, `CN1C(=O)S/C(=C/c2cccnc2)C1=O` displayed a z-score of 0.119.

In the case of `Cc1cc2c(C)nc(Cc3ccccc3)nc2o1`, the z-score was -0.274.

In the case of `CC(c1ccccc1C(O)(c1ccccc1)c1ccccc1)N(C)C` (configuration not stated), the z-score was found to be 0.412.

Take `COc1cc(/C=C/C(=O)Nc2nc3ccc(S(=O)(=O)N(C)C)cc3s2)cc(OC)c1OC`: the z-score was -0.254.

Consider `COc1ccc(NC(=S)N(CCCN2CCCCC2)Cc2cccs2)cc1`, for which the z-score was -0.312.

With `Cc1ccc2c(c1)[C@@H]1CN(C)CC[C@@H]1N2S(=O)(=O)c1ccc([N+](=O)[O-])cc1`, the z-score is -0.822.

As for `C#CCNc1nc(CC)nc2c1nnn2Cc1ccccc1F`, the z-score is -0.47.

For the compound `CCn1c(SCC(=O)Nc2nc(C)c(C)s2)nnc1-c1cccnc1`, the z-score came to 0.705.

Compound `O=C(NCC(c1cccnc1)N1CCOCC1)c1cccc(Cl)c1` (configuration not stated) had a z-score of 0.257.

Regarding `C/C(=C\C(=O)c1ccc(Cl)cc1)NCc1ccc2c(c1)OCO2`, the z-score is -0.039.

As to `Cc1cccc(NC(=S)NNC(=O)c2csc3c2CCC(C)C3)c1` (configuration not stated), the z-score was active: 9.39.

For the compound `NS(=O)(=O)c1cccn1-c1ncc(C(F)(F)F)cc1Cl`, the z-score was -0.223.

For `C#CCOc1ccc(/C=N/O)cc1Cl`, the z-score is -1.42.

Turning to `COC(=O)c1sc(NC(=O)CSc2nnnn2-c2cccc(OC)c2)nc1C`, the z-score was -0.138.

`CCn1c(C)cc(/C=C2\NC(=O)N(Cc3ccc(Cl)cc3)C2=O)c1C`: the z-score was -0.173.

For the compound `O=C(NC1CCCC1)C1CCCN(S(=O)(=O)c2cnc[nH]2)C1` (configuration not stated), the z-score was -0.0267.

Compound `Cc1cccc(NC(=O)C23CCC(C)(/C(=N/O)C2)C3(C)C)c1` (configuration not stated) showed a z-score of 1.48.

As to `Clc1ccc2c(N/N=C/c3cccc(Br)c3)ccnc2c1`, the z-score was -0.261.

With `CCOCCCn1c(=NC(=O)c2ccc(OC)c(OC)c2)c(C#N)cc2c(=O)n3cccc(C)c3nc21`, the z-score was -0.362.

`O=C(COc1nc2ccccc2nc1N1CCOCC1)Nc1ccc(S(=O)(=O)N2CCCC2)cc1`: the z-score is 0.134.

Regarding `Cc1ccc(S(=O)(=O)/N=C(/Nc2ccccn2)c2ccc(Cl)cc2)cc1`, the z-score was 0.186.

As to `Cc1ccc(N2CC(C(=O)Nc3nnc(SCC(=O)Nc4cc(C)on4)s3)CC2=O)cc1` (configuration not stated), the z-score is -0.268.

`O=C(NCc1ccc(Cl)cc1)NCC(F)(F)F` yielded a z-score of 0.0319.

In the case of `OCCNCCOc1ccc(Cl)c(Cl)c1`, the z-score is 0.119.

For the compound `Cc1sc2nc(CSc3ccccc3)nc(NCCN(C)C)c2c1C`, the z-score worked out at 0.377.

For the compound `COc1ccc(NC(=S)Nc2ccccc2F)c(OC)c1`, the z-score was 0.102.

As to `Cc1ccc2nc(NC(=O)CCNS(=O)(=O)c3ccc(Br)s3)sc2c1`, the z-score was -0.0309.

As for `CCn1c2ccccc2c2cc(NC(=O)C(C)C)ccc21`, the z-score is -0.299.

The compound `Cc1ccc(N/C=C/C(=O)c2ccccc2)cc1C` gave a z-score of 0.53.

In the case of `Cn1c(-c2ccc(F)cc2)cnc1SCC(=O)Nc1ccccc1N1CCOCC1`, the z-score is -2.22.

Regarding `NC1=NS(=O)(=O)NC1c1cccc(Cl)c1` (configuration not stated), the z-score is -0.0993.

Turning to `Cc1ccc(N2C(=O)[C@@H]3C(C(=O)C(c4ccccc4)c4ccccc4)=NN[C@@H]3C2=O)cc1`, the z-score was -0.188.

As for `CC(NC(=O)c1ccco1)C1CCCO1` (configuration not stated), the z-score is -0.19.

In the case of `Cc1cccc(NC(=O)CN2C(=O)S/C(=C\C(=O)Nc3ccc(Cl)cc3)C2=O)c1`, the z-score is -0.144.

In the case of `COC(=O)c1ccc(C2C3=C(Nc4nnnn42)c2ccccc2OC3)cc1` (configuration not stated), the z-score is -0.413.

As to `O=C(N/N=C\c1ccc(O)c([N+](=O)[O-])c1)c1ccccc1-n1cccc1`, the z-score is 0.122.

With `Cc1ccc(NC(=O)C(=O)c2cn(CC(=O)N3CCCCC3)c3ccccc23)cc1`, the z-score worked out at 0.174.

`O=C1/C(=C\c2cccnc2)CN(Cc2ccccc2)C/C1=C\c1cccnc1`: the z-score was -0.063.

Regarding `CCOC(=O)C1CCCN(CCC(=O)Nc2ccccc2)C1` (configuration not stated), the z-score is -0.068.

`COC(=O)CSc1nnc(-c2cccs2)n1-c1ccc(Cl)cc1`: the z-score is -1.43.

`Cn1nc2c(c1C(=O)O)CCCC2` registered a z-score of 0.299.

As to `CC(C)(C)n1nnnc1C(c1cccs1)N1CCN(Cc2ccc3c(c2)OCO3)CC1` (configuration not stated), the z-score was -0.36.

As for `CN(C)c1nc(OCCNC(=O)Nc2ccccc2)nc(N2CCOCC2)n1`, the z-score is -0.658.

In the case of `O=C1N/C(=N/NC(=O)c2cccc3ccccc23)S/C1=C\c1ccccc1OCc1ccccc1`, the z-score was -0.335.

`CC(=O)c1cc2c(cc1NS(=O)(=O)c1ccc(C)cc1)OCCO2` came in with a z-score of 0.237.

`O=C(c1cccc(F)c1)N1CCN(C(=O)C2CC2)CC1`: the z-score is -0.948.

For the compound `Fc1ccc(NC(=S)NCc2ccccc2Cl)cc1`, the z-score was found to be 1.74.

Regarding `O=C(N/N=C1/CC(c2ccccc2)Oc2ccccc21)C1CC1` (configuration not stated), the z-score is -0.0209.

`Cc1ccc(NC(=O)/C(CN(C)C)=N\O)cc1`: the z-score was -1.32.

With `Cc1ccc(CCc2nnc(SCC(=O)Nc3cccc(Cl)c3)n2-c2ccccc2)o1`, the z-score was -0.254.

Compound `O=C(NCc1ccccn1)C1CCC(=O)N1C1CCCCC1` (configuration not stated) registered a z-score of 0.715.

The compound `COc1cccc(OCCNc2cc(Cl)ccc2[N+](=O)[O-])c1` had a z-score of 0.00367.

On to `O=C(c1cc(-c2ccccc2)nc2ccccc12)N1CCOCC1`, for which the z-score is -0.188.

In the case of `Cc1ccc(SCC(=O)NCc2ccncc2)cc1`, the z-score was -0.329.

`CCOC(=O)c1ccc(NC(=S)Nc2ccccn2)cc1` gave a z-score of 0.444.
